Assay results reported in PubChem BioAssay (NCI).
Several values for one entry are separate records, joined by “and”; a condition that tells them apart may be missing. Equal values may be shown once.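 Following 48 hours of exposure in 96-well plates, responses at five concentrations were used to interpolate endpoints linearly. Here, GI50 denotes the concentration required for 50% inhibition of growth. TGI: total growth inhibition.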 Peptide text beside a SMILES is read from it.

Test system: NCI-H322M lung
Assay: DTP human tumour cell line panel, 48 h

| SMILES | GI50 | TGI [µM] |
| --- | --- | --- |
| C[CH2][Sn]([CH2]C)([O]C(=O)c1ccccc1F)[O][Sn]([CH2]C)([CH2]C)[O]C(=O)c1ccccc1F | > 86.5 µM | > 100 |
| O=C(NC(=Nc1ccccc1)SCCSC(=Nc1ccccc1)NC(=O)c1cccs1)c1cccs1 | – | > 100 |
| NC(=O)c1ccc(-c2nc(-c3ccc4c(c3)OCO4)c(-c3ccccn3)[nH]2)cc1 | > 25 µM and 32.3 µM | > 100 |
| Cc1nn(C)c(COc2ccc(N3CCN(S(=O)(=O)N(C)C)CC3)cc2)c1-c1cccc2c(CCCOc3cccc4ccccc34)c(C(=O)O)n(CCN3CCOCC3)c12 | 4.59 µM | 18.3 |
| O=[N+]([O-])c1ccc(N2CCC(CCCC3CCN(c4ccc([N+](=O)[O-])cc4[N+](=O)[O-])CC3)CC2)c([N+](=O)[O-])c1 | – | 30.2 |
| Nc1ncnc2c1c(-c1ccc(Oc3ccccc3)cc1)nn2C[C@@H]1SSC[C@H]1O | 2.61 µM | 15 |
| CC(C)(C)c1[nH]nc2c1C(c1cc3ccccc3[nH]c1=O)Nc1cc(C(=O)OCc3ccccc3)ccc1N2 (centres undefined) | 4.47 µM | > 100 |
| CCOC(=O)C1CCCCN1C(=O)c1ccc(Nc2cnc3cc(C(F)(F)F)ccc3n2)cc1 (centres undefined) | 11.5 µM | 31.6 |
| N#Cc1c(-c2ccccc2)c(CN2CCCCC2)c(=O)n2c1[nH]c1ccccc12 | – | > 100 |
| OCCn1cnc2c(SCc3ccccc3)ncnc21 | – | > 100 |
| CCOc1ccc(N/C(=C(/C(Cl)=C(/Cl)NC(C)(C)C)[N+](=O)[O-])n2nnc3ccccc32)cc1 | – | > 100 |
| COC(=O)c1cc2ccccc2c2c3c(ccc12)OCO3 | 104 µM | 525 |
| ON=C(CC(O)(C(F)(F)Cl)C(F)(F)Cl)CC(O)(C(F)(F)Cl)C(F)(F)Cl | – | 4.47 |
| O=C1NOC(c2ccc(O)cc2)(c2ccc(O)cc2)c2ccccc21 | > 100 µM | > 100 |
| COc1ccc(COC2CC(OC)OC(C)C2OC(=O)c2ccccc2)cc1 (centres undefined) | – | > 100 |
| N#CNC(=NCCc1c[nH]c2ccccc12)Oc1ccccc1 | – | > 100 |
| O=C1C(SCCO)=C(SCCO)C(=O)N1c1ccc(-c2ccccc2)cc1 | 10.6 µM | 37.1 |
| COc1cnc2c(c1)C(=O)c1c-2n(CCCNC2=NCCS2)c(=O)c2cc(Cl)ccc12 | 1.54 µM | 3.68 |
| Cc1ccc2c(=O)c3ccccc3sc2c1 | – | > 100 |
| COc1cccc(NC(=O)CC(=O)N2N=C(N3c4ccccc4Sc4ccccc43)CC2c2ccccc2)c1 (centres undefined) | – | > 100 |
| COc1cc(OC)c(C(=O)/C=C/c2cccc(C#N)c2)c(OC)c1 | 1.49 µM | 5.62 |
| Nc1c(C(=O)c2cccc(-c3cccnc3)c2)cnn1-c1ccc(F)cc1F | > 13.1 µM | > 25 |
| COc1cccc(/C=C2\S/C(=N/Nc3nc(-c4ccc([N+](=O)[O-])cc4)cs3)NC2=O)c1O | – | 57.7 |

| SMILES | GI50 | TGI [µM] |
| --- | --- | --- |
| O=S(=O)(c1cccc2c(I)cccc12)N1CCCNCC1 | 15.7 µM | 30.5 |
| CC(=O)N(C(C)=O)c1cc2c3c(c1)CCCN3CCC2 | – | > 10 |
| Nc1c(C(=O)c2cccc(C#CCO)c2)cnn1-c1ccc(F)cc1 | > 25 µM | > 25 |
| COc1ccccc1CNCCCN1C(=O)c2ccc3c4c(ccc(c24)C1=O)C(=O)N(CCCN)C3=O | 1.86 µM | 3.61 |
| CN(C)CC1CCC2=C(C1=O)C(c1ccc(Cl)c(Cl)c1)C1=C(CCC(CN(C)C)C1=O)O2 (centres undefined) | 17.3 µM | 31.2 |
| Cc1[nH]c2ccc(F)cc2c1-c1nc2c3cccnc3c3ncccc3c2[nH]1 | 0.271 µM | > 100 |
| O=S(=O)(/C=C/CS(=O)(=O)c1ccccc1)c1ccccc1 | – | 81.5 |
| Cc1cc(S(=O)(=O)/N=C(\[N-]S(=O)(=O)c2cc(Cl)sc2Cl)[n+]2ccc(N(C)C)cc2)c(S)cc1Cl | – | > 100 |
| CCOC(=O)c1cc2c(n1Cc1cc(OC)c(OC)c(OC)c1)-c1oncc1CCC2 | 0.431 µM | > 100 |
| Cc1cnc(CNC(=O)c2c(=O)c3ccc(N4CCCN(C)CC4)nc3n3c2sc2ccccc23)cn1 | 10.7 µM | 25 |
| O=c1oc2c(Cl)cc(Cl)cc2cc1C1=CSC2=NCCN12 | – | > 100 |
| COc1ccc2nc3cc(Cl)ccc3c(SCC(=O)Nc3ccccc3-c3ccccc3NC(=O)CSc3c4ccc(Cl)cc4nc4ccc(OC)cc34)c2c1 | – | > 100 |
| NS(=O)(=O)c1ccc(/C=C/c2ccc(O)cc2)cc1 | – | > 100 |
| CCOC(=O)c1nnc2c(C#N)c(-c3ccccc3)c(C)n2c1N | – | > 100 |
| CC(=O)OC(C)(C)CCC(=O)[C@](C)(O)[C@H]1[C@H](O)C[C@@]2(C)[C@@H]3CCc4c(cc(OC5OC(CO)C(O)C(O)C5O)c(O)c4C)C3(C)C(=O)C[C@]12C (some centres undefined) | – | > 100 |
| CNC1(C(=O)O)CC1 | – | > 100 |
| CCOc1ccc(NC(=O)C(=O)C(C(=O)c2ccc3ccccc3c2)C2OC(=O)c3ccccc32)cc1 (centres undefined) | – | 67.6 |
| Cc1ccc(N(C)S(=O)(=O)c2ccccc2[N+](=O)[O-])cc1 | – | > 100 |
| BrCC[N+]12CC[N+](CCBr)(CC1)C2 | – | > 100 |
| C[C@@H]1CC[C@@]2(OC1)O[C@H]1C[C@H]3[C@@H]4CC[C@H]5C[C@@H](OC6OC(CO)C(OC7OC(CO)C(O)C(OC8OCC(O)C(O)C8O)C7OC7OC(CO)C(O)C(O)C7O)C(O)C6O)[C@H](O)C[C@]5(C)[C@H]4CC[C@]3(C)[C@H]1[C@@H]2C (some centres undefined) | – | 25.7 |
| CC1(C)CC2CC(CC(C)(C)C2=O)C1=O | – | > 100 |
| Cc1ccc2c(/C=C/c3ccc(N(C)C)cc3)ccc(C(C)C)cc1-2 | – | > 100 |
| CC1=C(C(=O)N[C@@H](CC(C)C)C(=O)O)N2C(=O)[C@@H](NC(=O)C(N)c3ccccc3)[C@H]2SC1 (some centres undefined) | – | > 100 |

| SMILES | GI50 | TGI [µM] |
| --- | --- | --- |
| COc1ccc(-c2c(C#N)c(S)n(NS(=O)(=O)c3ccccc3)c(=O)c2C#N)cc1 | – | > 100 |
| O=C(c1ccccc1)N1C(=S)N(c2ccccn2)C(=Nc2ccccc2)C1=Nc1ccccc1 | – | > 100 |
| N#Cc1c(O)c(/C=N/c2ncccn2)c(=O)n2c1[nH]c1ccccc12 | – | > 100 |
| CC(=O)CC1=C(OC(C)C)C2(OCCO2)C1O (centres undefined) | – | > 100 |
| O=C(N/N=C(/COc1ccccc1)N=Cc1cccnc1)c1ccncc1 | – | > 100 |
| CCSc1nc(SCC)c2c(-c3ccc(OC)c(OC)c3)c(C#N)c(SCC)nc2n1 | 22 µM | 79.1 |
| Cn1c(N)nc(-c2ccc(Cl)cc2)c1SSc1c(-c2ccc(Cl)cc2)nc(N)n1C | – | 33.9 |
| O=C1CC(=O)NC(=NNS(=O)(=O)c2ccc(Cl)cc2)N1 | – | > 100 |
| COC(=N)c1c(N)[n+]([O-])c2ccc(F)cc2[n+]1[O-] | > 100 µM | > 100 |
| CC(=O)OC(Cc1c(O)c2c(C)cccc2oc1=O)C(C)(C)O (centres undefined) | – | > 100 |
| CC[C@@]1(O)C(=O)OCc2c1cc1n(c2=O)Cc2c-1nc1ccccc1c2/C=N/NC(=O)c1ccc(N)cc1 | – | > 100 |
| Cc1ccc(Nc2nc3c(=O)n(C)c(=O)n(C)c3nc2Nc2ccc(C)cc2)cc1 | – | 41.6 |
| O=C(CC(Cl)=C(Cl)Cl)c1ccccc1 | – | > 100 |
| COC(=O)CC1c2ccccc2N2C(=O)Cc3c([nH]c4ccccc34)C12 (centres undefined) | – | > 100 |
| C#CC1(O)CCCCCCCCC2(CCCCCCCC1)OCCO2 | – | 34.8 |
| O=C(O)C(CS)NCc1c2ccccc2nc2ccccc12 (centres undefined) | – | > 100 |
| Cc1cn2c(/C=C3/C(=O)Nc4ccc(O)cc43)c(C)nc2s1 | 3.15 µM | 17.2 |
| Cn1cc(-c2csc(-c3cn(CCCN4CCCCC4)c4ccccc34)n2)c2cccnc21 | 1.67 µM | 3.08 |
| COC(=O)C12OC3CO[Si](C(C)C)(C(C)C)O[Si](C(C)C)(C(C)C)OC3C1Oc1nc(=O)ccn12 (centres undefined) | – | 30.5 |
| COc1ccc(CC(=O)c2ccc(O)cc2O)cc1 | > 100 µM | > 100 |
| N#Cc1nc2c(S(=O)(=O)c3ccc(Cl)cc3)c(N)n(CCCN3CCOCC3)c2nc1C#N | 21.1 µM | > 100 |
| Cc1[nH]c(=O)nc(NNCc2ccc(Cl)cc2)c1C(=O)Nc1ccc(Cl)cc1 | – | > 100 |
| O=C(Nc1ccc(Cl)cc1)c1cc(S(=O)(=O)Nc2nnc3c(Cl)cc(C(F)(F)F)cn23)c(S)cc1Cl | – | > 100 |

| SMILES | GI50 | TGI [µM] |
| --- | --- | --- |
| COc1ccc(-c2oc3c(OC)c(OC)cc(O)c3c(=O)c2OC)cc1 | – | > 100 |
| CCOc1cc2c(c(OCC)c1O)CC[C@@H]1[C@@H]2CC[C@]2(C)[C@@H](O)CC[C@@H]12 | – | > 100 |
| COc1ccc(/C=C2\C[C@H]3[C@@H]4CCC5=CC(=O)CC[C@]5(C)[C@H]4CC[C@]3(C)C2=O)cc1OC | – | > 100 |
| c1ccc([I+]c2ccccc2)cc1 | – | > 100 |
| CC(=O)[CH-]C(=O)c1ccccc1.CC(=O)[CH-]C(=O)c1ccccc1.CC(=O)[CH-]C(=O)c1ccccc1.[In+3] | > 100 µM | > 100 |
| Cn1cccc1-c1cc(-c2ccc(Br)cc2)[nH]c(=O)c1C#N | > 100 µM | > 100 |
| CC(C)C[C@H](NC(=O)[C@H](CC(C)C)NC(=O)[C@@H](Cc1c[nH]c2ccccc12)NC(=O)[C@H](Cc1ccccc1)NC(=O)[C@@H](Cc1c[nH]c2ccccc12)NC(=O)[C@H](CCC(N)=O)NC(=O)[C@H](CCC(N)=O)NC(=O)[C@H]1CCCN1C(=O)[C@@H](N)CCCCN)C(N)=O (HELM PEPTIDE1{K.[dP].Q.Q.[dW].F.[dW].L.L.[am]}$$$$V2.0) | – | > 100 |
| O=c1cc(-c2cccnc2)[nH]c2cc3c(cc12)OCO3 | – | > 100 |
| Cc1cccc(N/C(Sc2ccccc2)=C(/C(Cl)=C(Cl)Cl)[N+](=O)[O-])c1 | – | 69.3 |
| CN1CCc2[nH]nc(-c3n[nH]c4c3CN(C)CC4)c2C1 | – | > 100 |
| COC(=O)C(CC1=C(O)Nc2ccccc2N1)/C(=N/NC(N)=O)C(=O)Nc1ccccc1C (centres undefined) | – | > 100 |
| CCOC(=O)/C(O)=C(/C(=O)OC)c1ccc(Cl)cc1 | – | > 100 |
| CC(C)CCNCC(O)Cn1c2ccccc2c2ccccc21 (centres undefined) | 15.5 µM | 30.3 |
| O1[As]2O[As]3O[As]1O[As](O2)O3 | 2.88 µM | 9.36 |
| CCC[CH2][Sn]1([CH2]CCC)[O]C2C(CO)OC(n3ccc(N)nc3=O)C2[O]1 (centres undefined) | 1.68 µM | 3.12 |
| CCOP(=O)(OCC)OC1c2[nH]cc(C(=O)OCc3ccccc3)c2-c2cc(C(=O)OC)[nH]c2C1OC (centres undefined) | – | > 100 |
| CCCCCCCCCCCCCCCCCCOCC(O)COP(=O)(O)OCC1OC(n2ccc(N)nc2=O)C(O)C1O (centres undefined) | – | > 100 |
| CC(=O)O[C@H]1CCC2[C@@H]3CCC4c5nonc5CC[C@]4(C)C3CC[C@@]21C (some centres undefined) | – | > 10 |
| COC(=O)CCC(NC(=O)OC(C)(C)C)C(=O)NC(Cc1ccc(NC(=O)CCCC(C)=O)cc1)C(=O)NC(CCC(=O)OC)C(=O)OC (centres undefined) | – | > 100 |
| CC1=C(C)SC(=C2Sc3nc(O)[nH]c(=O)c3S2)S1 | – | > 100 |
